Data taken from article PMC10629583, “Specific inhibition of an anticancer target, polo-like kinase 1, by allosterically dismantling its mechanism of substrate recognition” (Proceedings of the National Academy of Sciences of the …, 2023).

Key:
Assay in all cases: PDSP off-target binding screen
GABAA = test system: GABAA; set-up: species or system human; conditions: for Primary screen AVE(%inhib)±SD: 10 µM; for Ki: read-out: Secondary screen Ki
Source text: (§1) PDSP no. Compound Interactions (Ki, µM)
(§2) 60477 Allopole-A None observed.
(§3) trigger a secondary screen at that receptor.

D5 = D5 (Homo sapiens, UniProt P21918); conditions: for inhibition at 10 µM: read-out: Primary screen AVE(%inhib)±SD; for Ki: read-out: Secondary screen Ki
Source text: as §1, §2, §3

D2 = D2 (Homo sapiens, UniProt P14416); conditions: for inhibition at 10 µM: read-out: Primary screen AVE(%inhib)±SD; for Ki: read-out: Secondary screen Ki
Source text: as §1, §2, §3

M3 = M3 (Homo sapiens, UniProt P20309); conditions: for inhibition at 10 µM: read-out: Primary screen AVE(%inhib)±SD; for Ki: read-out: Secondary screen Ki
Source text: as §1, §2, §3

5-HT3 = molecular target: T1, 5-HT3 (Homo sapiens, UniProt P46098); conditions: for inhibition at 10 µM: read-out: Primary screen AVE(%inhib)±SD; for Ki: read-out: Secondary screen Ki
T1 construct: NIMH Psychoactive Drug Screening Program (UNC)
T1 sequence (P46098 24-478): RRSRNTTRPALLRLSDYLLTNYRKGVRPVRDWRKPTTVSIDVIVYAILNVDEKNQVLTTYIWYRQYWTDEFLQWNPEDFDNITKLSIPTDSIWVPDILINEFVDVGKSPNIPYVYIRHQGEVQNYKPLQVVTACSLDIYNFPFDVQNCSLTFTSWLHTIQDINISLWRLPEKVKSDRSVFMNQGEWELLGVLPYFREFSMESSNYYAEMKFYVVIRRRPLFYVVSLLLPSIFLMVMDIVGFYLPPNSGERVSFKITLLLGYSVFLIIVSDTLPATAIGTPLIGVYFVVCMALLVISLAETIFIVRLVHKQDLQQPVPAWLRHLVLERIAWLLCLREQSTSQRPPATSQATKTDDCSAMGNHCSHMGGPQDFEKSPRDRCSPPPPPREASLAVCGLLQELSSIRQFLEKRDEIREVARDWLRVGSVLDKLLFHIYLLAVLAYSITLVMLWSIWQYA
Source text: as §1, §2, §3

5-HT5A = molecular target: T2, 5-HT5A (Homo sapiens, UniProt P47898); conditions: for inhibition at 10 µM: read-out: Primary screen AVE(%inhib)±SD; for Ki: read-out: Secondary screen Ki
T2 construct: NIMH Psychoactive Drug Screening Program (UNC)
Source text: as §1, §2, §3

BZP Rat brain site = conditions: for Primary screen AVE(%inhib)±SD: 10 µM; for Ki: read-out: Secondary screen Ki
Source text: as §1, §2, §3

H3 = H3 (Homo sapiens, UniProt Q9Y5N1); conditions: for inhibition at 10 µM: read-out: Primary screen AVE(%inhib)±SD; for Ki: read-out: Secondary screen Ki
Source text: as §1, §2, §3

KOR = KOR (Homo sapiens, UniProt P41145); conditions: for inhibition at 10 µM: read-out: Primary screen AVE(%inhib)±SD; for Ki: read-out: Secondary screen Ki
Source text: as §1, §2, §3

H4 = H4 (Homo sapiens, UniProt Q9H3N8); conditions: for inhibition at 10 µM: read-out: Primary screen AVE(%inhib)±SD; for Ki: read-out: Secondary screen Ki
Source text: as §1, §2, §3

D3 = D3 (Homo sapiens, UniProt P35462); conditions: for inhibition at 10 µM: read-out: Primary screen AVE(%inhib)±SD; for Ki: read-out: Secondary screen Ki
Source text: as §1, §2, §3

PBR = PBR (Rattus norvegicus, UniProt P16257); conditions: for inhibition at 10 µM: read-out: Primary screen AVE(%inhib)±SD; for Ki: read-out: Secondary screen Ki
Source text: as §1, §2, §3

Beta3 = Beta3 (Homo sapiens, UniProt P13945); conditions: for inhibition at 10 µM: read-out: Primary screen AVE(%inhib)±SD; for Ki: read-out: Secondary screen Ki
Source text: as §1, §2, §3

D1 = D1 (Homo sapiens, UniProt P21728); conditions: for inhibition at 10 µM: read-out: Primary screen AVE(%inhib)±SD; for Ki: read-out: Secondary screen Ki
Source text: as §1, §2, §3

M3, sequence (P20309 whole entry): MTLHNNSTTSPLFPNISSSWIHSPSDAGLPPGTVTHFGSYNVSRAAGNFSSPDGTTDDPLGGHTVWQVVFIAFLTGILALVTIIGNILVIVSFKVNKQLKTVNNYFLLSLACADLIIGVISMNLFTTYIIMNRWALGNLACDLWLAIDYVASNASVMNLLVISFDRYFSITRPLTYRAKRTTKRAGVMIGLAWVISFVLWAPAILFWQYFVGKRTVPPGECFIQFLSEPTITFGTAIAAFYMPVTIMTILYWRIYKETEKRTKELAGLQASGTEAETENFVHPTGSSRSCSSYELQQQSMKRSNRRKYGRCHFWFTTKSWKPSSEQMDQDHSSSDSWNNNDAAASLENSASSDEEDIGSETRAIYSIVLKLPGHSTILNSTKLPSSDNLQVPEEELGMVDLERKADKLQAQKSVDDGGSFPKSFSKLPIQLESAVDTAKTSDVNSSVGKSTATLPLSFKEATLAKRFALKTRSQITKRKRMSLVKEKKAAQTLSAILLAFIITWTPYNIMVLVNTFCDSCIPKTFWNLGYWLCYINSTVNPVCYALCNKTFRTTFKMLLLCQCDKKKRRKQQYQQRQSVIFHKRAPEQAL
D5, sequence (P21918 whole entry): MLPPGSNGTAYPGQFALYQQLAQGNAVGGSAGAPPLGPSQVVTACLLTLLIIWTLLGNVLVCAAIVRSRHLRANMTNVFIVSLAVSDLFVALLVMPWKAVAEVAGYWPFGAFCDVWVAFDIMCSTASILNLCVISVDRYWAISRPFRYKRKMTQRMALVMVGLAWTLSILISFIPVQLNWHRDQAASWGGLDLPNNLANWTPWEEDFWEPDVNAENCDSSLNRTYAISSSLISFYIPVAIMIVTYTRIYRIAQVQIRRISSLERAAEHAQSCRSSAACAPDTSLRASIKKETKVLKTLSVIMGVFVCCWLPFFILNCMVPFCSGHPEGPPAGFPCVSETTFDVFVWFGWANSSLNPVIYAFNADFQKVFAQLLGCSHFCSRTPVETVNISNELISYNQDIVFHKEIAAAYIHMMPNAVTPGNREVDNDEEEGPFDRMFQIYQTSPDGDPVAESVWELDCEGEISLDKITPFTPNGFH
H3, sequence (Q9Y5N1 whole entry): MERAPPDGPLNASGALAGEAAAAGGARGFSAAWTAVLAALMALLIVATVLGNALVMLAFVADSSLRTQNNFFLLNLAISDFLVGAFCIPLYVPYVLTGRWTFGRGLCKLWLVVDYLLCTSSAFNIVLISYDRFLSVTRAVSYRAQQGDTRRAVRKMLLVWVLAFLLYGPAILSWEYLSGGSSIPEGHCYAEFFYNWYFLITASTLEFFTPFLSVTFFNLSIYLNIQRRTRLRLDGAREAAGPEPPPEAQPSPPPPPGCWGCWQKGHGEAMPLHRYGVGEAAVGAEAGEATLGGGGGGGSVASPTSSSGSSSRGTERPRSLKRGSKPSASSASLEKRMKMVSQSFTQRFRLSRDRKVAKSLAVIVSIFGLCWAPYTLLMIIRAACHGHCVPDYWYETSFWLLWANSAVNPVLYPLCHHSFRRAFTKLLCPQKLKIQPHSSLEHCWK
H4, sequence (Q9H3N8 whole entry): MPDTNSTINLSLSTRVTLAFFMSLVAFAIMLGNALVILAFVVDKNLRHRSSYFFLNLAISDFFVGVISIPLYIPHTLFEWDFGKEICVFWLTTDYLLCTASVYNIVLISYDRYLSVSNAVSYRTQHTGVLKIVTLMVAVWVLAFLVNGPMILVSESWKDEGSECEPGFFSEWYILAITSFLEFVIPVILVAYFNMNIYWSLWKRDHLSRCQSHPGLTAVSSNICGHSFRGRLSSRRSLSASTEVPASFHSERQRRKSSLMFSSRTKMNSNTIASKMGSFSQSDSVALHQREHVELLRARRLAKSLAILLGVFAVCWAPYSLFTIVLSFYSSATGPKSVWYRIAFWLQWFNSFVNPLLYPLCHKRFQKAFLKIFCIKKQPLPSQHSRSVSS
D3, sequence (P35462 whole entry): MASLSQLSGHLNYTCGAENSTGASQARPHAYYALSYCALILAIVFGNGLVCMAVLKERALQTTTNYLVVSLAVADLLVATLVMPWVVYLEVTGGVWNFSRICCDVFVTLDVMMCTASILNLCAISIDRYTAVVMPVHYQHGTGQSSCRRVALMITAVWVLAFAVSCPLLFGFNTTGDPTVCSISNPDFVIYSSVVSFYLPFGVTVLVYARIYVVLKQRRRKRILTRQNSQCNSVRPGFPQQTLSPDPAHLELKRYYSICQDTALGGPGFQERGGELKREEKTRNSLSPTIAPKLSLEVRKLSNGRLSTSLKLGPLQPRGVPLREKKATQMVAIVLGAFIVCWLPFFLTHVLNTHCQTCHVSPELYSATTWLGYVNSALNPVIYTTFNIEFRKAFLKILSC
D2, sequence (P14416 whole entry): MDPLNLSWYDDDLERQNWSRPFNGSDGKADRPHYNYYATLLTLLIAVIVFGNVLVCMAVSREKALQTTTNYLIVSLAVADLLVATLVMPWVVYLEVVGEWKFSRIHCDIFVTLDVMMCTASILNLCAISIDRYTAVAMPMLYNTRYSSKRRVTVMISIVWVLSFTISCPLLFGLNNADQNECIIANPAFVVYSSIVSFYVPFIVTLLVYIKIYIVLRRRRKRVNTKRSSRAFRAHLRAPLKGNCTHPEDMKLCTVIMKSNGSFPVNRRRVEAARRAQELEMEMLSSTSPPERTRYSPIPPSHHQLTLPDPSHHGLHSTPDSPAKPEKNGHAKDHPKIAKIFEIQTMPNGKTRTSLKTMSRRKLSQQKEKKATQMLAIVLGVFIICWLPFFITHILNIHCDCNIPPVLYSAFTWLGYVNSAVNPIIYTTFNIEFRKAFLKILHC
D1, sequence (P21728 whole entry): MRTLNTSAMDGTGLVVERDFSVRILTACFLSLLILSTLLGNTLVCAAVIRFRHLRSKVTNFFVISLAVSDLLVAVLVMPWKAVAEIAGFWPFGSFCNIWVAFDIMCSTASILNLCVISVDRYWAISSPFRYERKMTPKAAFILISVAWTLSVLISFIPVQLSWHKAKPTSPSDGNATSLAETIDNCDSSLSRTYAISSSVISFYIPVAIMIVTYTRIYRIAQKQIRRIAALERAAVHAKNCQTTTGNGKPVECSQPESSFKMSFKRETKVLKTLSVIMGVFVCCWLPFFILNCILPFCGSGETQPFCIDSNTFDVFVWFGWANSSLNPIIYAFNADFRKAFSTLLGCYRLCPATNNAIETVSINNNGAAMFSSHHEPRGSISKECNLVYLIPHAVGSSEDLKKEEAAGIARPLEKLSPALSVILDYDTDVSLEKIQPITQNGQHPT
Beta3, sequence (P13945 whole entry): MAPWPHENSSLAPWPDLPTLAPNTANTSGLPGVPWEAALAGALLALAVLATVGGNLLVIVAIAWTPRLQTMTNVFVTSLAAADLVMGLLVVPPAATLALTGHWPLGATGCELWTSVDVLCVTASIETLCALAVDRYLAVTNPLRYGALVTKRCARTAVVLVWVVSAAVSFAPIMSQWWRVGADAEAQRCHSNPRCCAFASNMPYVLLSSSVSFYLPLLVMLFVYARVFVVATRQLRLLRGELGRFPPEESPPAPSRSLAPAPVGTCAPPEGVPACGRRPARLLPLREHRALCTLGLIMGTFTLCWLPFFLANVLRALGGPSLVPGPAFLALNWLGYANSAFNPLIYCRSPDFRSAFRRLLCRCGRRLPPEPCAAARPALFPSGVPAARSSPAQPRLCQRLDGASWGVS
KOR, sequence (P41145 whole entry): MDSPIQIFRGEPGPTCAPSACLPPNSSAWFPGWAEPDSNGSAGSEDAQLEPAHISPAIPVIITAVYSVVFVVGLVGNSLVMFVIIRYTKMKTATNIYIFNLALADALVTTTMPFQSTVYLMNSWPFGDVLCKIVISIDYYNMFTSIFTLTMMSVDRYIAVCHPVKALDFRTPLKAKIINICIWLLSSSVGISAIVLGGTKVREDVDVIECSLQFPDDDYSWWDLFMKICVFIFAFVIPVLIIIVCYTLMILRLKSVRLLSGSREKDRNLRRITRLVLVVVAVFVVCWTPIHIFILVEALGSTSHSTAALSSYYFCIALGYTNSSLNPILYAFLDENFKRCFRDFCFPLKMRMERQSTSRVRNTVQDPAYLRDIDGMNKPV
T2 sequence (P47898 whole entry): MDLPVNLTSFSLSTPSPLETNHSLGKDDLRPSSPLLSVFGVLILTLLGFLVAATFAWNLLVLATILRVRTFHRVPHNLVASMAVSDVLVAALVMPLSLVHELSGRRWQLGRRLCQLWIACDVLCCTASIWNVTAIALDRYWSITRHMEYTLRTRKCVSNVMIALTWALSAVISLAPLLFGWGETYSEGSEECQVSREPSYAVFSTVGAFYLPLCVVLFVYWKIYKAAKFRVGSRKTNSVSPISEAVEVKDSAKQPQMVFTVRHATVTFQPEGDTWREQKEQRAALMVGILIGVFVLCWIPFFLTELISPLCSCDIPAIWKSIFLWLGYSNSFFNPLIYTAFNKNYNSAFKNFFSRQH

SMILES	Primary screen AVE(%inhib)±SD (GABAA) [%]	Ki (GABAA) [µM]	inhibition at 10 µM (D5) [%]	Ki (D5) [µM]	inhibition at 10 µM (D2) [%]	Ki (D2) [µM]	inhibition at 10 µM (M3) [%]	Ki (M3) [µM]	inhibition at 10 µM (5-HT3) [%]	Ki (5-HT3) [µM]	inhibition at 10 µM (5-HT5A) [%]	Ki (5-HT5A) [µM]	Primary screen AVE(%inhib)±SD (BZP Rat brain site) [%]	Ki (BZP Rat brain site) [µM]	inhibition at 10 µM (H3) [%]	Ki (H3) [µM]	inhibition at 10 µM (KOR) [%]	Ki (KOR) [µM]	inhibition at 10 µM (H4) [%]	Ki (H4) [µM]	other results
O=c1c2sc(Cl)cc2n2c(=S)[nH]nc2n1CC1CC1 [Allopole-A]	35.7±11.1	> 10	28.7 ± 10.7	> 10	-27.4 ± 13.1	> 10	7.5 ± 45.6	> 10	-3.8 ± 3.1	> 10	-1.4 ± 14.4	> 10	2.3±21.8	> 10	-18.5 ± 3.8	> 10	-0.3 ± 8.7	> 10	-4.5 ± 11.4	> 10	inhibition at 10 µM (D3): -7 ± 21.7%; Ki (D3): > 10 µM; inhibition at 10 µM (PBR): 5.3 ± 8.3%; Ki (PBR): > 10 µM; inhibition at 10 µM (Beta3): 17.9 ± 8.6%; Ki (Beta3): > 10 µM; inhibition at 10 µM (D1): -17.2 ± 25%; Ki (D1): > 10 µM
Cn1cnc([N+](=O)[O-])c1Sc1nnc2n(CC3CC3)c(=O)c3sc(Cl)cc3n12 [Allopole]	33.3±4.2	> 10	20.9 ± 9.5	> 10	3.6 ± 6.6	> 10	48.3 ± 21.9	> 10	-0.8 ± 4.6	> 10	24.5 ± 9.3	> 10	9.5±7.6	> 10	-12.5 ± 7.9	> 10	3.7 ± 4.1	> 10	8.2 ± 3.1	> 10	inhibition at 10 µM (D3): 12.8 ± 12.8%; Ki (D3): > 10 µM; inhibition at 10 µM (PBR): -2.1 ± 5.3%; Ki (PBR): > 10 µM; inhibition at 10 µM (Beta3): 30.8 ± 22.8%; Ki (Beta3): > 10 µM; inhibition at 10 µM (D1): 21.5 ± 6.8%; Ki (D1): > 10 µM
